According to PMC10423209:
Results are given in words; binding and its absence hold for the method and conditions named. In cells and extracts the contact can be indirect. Some entries that bind do so weakly or less than the wild type. For part of these data: Sequences can lack the tags named with a protein.

By UniProt entry, the sequences of proteins in these tests, tags left out. Where a name states a change or a piece, a line headed by the entry shows the natural chain unless it says otherwise.
UniProt Q15599: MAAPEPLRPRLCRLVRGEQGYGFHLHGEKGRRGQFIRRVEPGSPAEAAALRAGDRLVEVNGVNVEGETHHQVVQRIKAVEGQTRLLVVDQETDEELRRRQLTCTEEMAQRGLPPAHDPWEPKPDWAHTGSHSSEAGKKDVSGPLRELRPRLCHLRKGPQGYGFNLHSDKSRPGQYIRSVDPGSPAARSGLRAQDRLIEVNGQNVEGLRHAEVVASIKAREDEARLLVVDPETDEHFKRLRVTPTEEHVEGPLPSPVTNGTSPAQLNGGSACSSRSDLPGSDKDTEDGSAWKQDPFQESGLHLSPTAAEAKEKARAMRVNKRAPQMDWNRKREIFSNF

B1: Flag-SLC26A3 (wild type) (protein, UniProt P40879 1-764)
chain: MIEPFGNQYIVARPVYSTNAFEENHKKTGRHHKTFLDHLKVCCSCSPQKAKRIVLSLFPIASWLPAYRLKEWLLSDIVSGISTGIVAVLQGLAFALLVDIPPVYGLYASFFPAIIYLFFGTSRHISVGPFPILSMMVGLAVSGAVSKAVPDRNATTLGLPNNSNNSSLLDDERVRVAAAASVTVLSGIIQLAFGILRIGFVVIYLSESLISGFTTAAAVHVLVSQLKFIFQLTVPSHTDPVSIFKVLYSVFSQIEKTNIADLVTALIVLLVVSIVKEINQRFKDKLPVPIPIEFIMTVIAAGVSYGCDFKNRFKVAVVGDMNPGFQPPITPDVETFQNTVGDCFGIAMVAFAVAFSVASVYSLKYDYPLDGNQELIALGLGNIVCGVFRGFAGSTALSRSAVQESTGGKTQIAGLIGAIIVLIVVLAIGFLLAPLQKSVLAALALGNLKGMLMQFAEIGRLWRKDKYDCLIWIMTFIFTIVLGLGLGLAASVAFQLLTIVFRTQFPKCSTLANIGRTNIYKNKKDYYDMYEPEGVKIFRCPSPIYFANIGFFRRKLIDAVGFSPLRILRKRNKALRKIRKLQKQGLLQVTPKGFICTVDTIKDSDEELDNNQIEVLDQPINTTDLPFHIDWNDDLPLNIEVPKISLHSLILDFSAVSFLDVSSVRGLKSILQEFIRIKVDVYIVGTDDDFIEKLNRYEFFDGEVKSSIFFLTIHDAVLHILMKKDYSTSKFNPSQEKDGKIDFTINTNGGLRNRVYEVPVETKF

Key:
[1] = molecular target: T1, Flag-SLC26A3 (wild type) (human) (UniProt P40879); assay: co-IP; HCT116, Caco2 and HEK293T cells; SLC26A3 with exogenous or endogenous NHERF2 (Fig. S4A-C)
T1 sequence: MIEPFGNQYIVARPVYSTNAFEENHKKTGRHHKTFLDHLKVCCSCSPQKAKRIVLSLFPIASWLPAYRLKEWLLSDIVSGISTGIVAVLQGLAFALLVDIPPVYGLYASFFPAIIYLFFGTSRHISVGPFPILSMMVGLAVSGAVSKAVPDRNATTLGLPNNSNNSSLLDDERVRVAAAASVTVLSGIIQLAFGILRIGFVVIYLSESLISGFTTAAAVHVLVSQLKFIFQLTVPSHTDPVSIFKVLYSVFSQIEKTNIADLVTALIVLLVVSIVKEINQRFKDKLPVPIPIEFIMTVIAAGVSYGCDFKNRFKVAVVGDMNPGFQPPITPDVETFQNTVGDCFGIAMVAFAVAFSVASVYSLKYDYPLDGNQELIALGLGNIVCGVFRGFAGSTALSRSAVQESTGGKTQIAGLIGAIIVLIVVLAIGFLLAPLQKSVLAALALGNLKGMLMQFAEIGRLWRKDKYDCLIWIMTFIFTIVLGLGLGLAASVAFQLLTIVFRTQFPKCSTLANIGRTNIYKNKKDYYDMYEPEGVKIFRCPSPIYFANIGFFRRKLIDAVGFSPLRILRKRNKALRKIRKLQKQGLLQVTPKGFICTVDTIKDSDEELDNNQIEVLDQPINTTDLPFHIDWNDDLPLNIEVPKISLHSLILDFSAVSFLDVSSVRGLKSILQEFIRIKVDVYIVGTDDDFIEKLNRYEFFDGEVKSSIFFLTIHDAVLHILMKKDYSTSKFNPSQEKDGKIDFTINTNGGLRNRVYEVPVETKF

[2] = molecular target: T2, endogenous SLC26A3 (human (endogenous in HCT116 and Caco2)) (UniProt P40879); assay: co-IP; endogenous proteins in HCT116 and Caco2 cells; SLC26A3 antibody (5 μg/mL, Santa Cruz) to IP SLC26A3
T2 sequence: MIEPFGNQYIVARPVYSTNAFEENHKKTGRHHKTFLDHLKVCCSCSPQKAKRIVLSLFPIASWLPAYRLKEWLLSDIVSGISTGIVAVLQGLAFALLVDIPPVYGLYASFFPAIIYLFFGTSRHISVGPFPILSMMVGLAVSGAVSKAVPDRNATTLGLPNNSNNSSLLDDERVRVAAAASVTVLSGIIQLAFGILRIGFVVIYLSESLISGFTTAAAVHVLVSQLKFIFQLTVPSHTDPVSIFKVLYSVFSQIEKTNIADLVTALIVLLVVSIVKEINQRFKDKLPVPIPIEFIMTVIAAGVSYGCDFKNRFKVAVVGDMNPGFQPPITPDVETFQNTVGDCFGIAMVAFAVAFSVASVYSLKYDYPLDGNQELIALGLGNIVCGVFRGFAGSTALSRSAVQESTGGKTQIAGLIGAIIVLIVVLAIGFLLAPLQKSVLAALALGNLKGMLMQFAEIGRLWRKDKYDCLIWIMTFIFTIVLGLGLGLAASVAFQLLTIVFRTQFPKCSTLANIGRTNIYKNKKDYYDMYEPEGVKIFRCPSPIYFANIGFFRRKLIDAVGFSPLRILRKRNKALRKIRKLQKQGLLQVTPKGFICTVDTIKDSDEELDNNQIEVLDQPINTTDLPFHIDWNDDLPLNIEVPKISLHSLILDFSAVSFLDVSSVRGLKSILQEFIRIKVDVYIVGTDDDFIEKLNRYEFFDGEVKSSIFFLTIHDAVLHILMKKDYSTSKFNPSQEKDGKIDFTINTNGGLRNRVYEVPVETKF

[3] = molecular target: T3, Flag-SLC26A3-C terminal fragment (human) (UniProt P40879); assay: co-IP; HEK293T (for the two fragments also HCT116) co-transfected with Flag-SLC26A3 and Myc-NHERF2 constructs for 48 h; Flag-tagged and Myc-tagged anti-beads
T3 sequence: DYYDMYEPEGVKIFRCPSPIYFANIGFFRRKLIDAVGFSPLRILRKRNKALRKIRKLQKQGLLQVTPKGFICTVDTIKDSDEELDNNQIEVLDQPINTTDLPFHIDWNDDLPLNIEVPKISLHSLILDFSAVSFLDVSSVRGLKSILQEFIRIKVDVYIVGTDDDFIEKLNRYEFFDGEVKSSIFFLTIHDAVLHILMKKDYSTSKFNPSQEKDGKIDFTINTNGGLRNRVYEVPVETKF

[4] = molecular target: T1, Flag-SLC26A3 (wild type) (human); assay: as above
[5] = molecular target: T4, Flag-SLC26A3 N-terminal domain fragment (human) (UniProt P40879); assay: as above
T4 sequence: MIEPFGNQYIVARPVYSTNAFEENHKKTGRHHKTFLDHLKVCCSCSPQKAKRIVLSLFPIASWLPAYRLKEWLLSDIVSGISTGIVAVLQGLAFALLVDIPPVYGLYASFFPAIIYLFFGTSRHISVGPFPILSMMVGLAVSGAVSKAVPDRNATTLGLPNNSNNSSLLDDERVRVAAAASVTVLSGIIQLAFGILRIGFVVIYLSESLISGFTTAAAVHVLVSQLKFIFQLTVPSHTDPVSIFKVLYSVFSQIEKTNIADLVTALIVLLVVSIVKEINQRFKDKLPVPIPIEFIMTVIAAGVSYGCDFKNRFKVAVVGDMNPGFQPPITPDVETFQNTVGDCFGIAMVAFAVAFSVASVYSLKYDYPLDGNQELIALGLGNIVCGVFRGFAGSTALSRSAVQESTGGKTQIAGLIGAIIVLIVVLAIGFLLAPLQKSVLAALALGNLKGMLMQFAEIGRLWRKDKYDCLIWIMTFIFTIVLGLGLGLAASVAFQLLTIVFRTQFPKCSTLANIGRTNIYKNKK

[6] = molecular target: reconstituted GST fusion NHERF2 protein (human) (UniProt Q15599); assay: pull-down; GST pulldown with reconstituted GST-NHERF2 purified from a prokaryotic expression system and a Flag-tagged partner, in vitro; only the target purified

| Molecule | binding [1] | binding [2] | binding [3] | binding [4] | binding [5] | binding [6] |
| --- | --- | --- | --- | --- | --- | --- |
| endogenous NHERF2 (from UniProt Q15599 1-337) | binds | binds |  |  |  |  |
| Myc-NHERF2-N terminal fragment (from UniProt Q15599 1-228) (domain or fragment) |  |  | binds | binds |  |  |
| Myc-NHERF2 (wild type) (from UniProt Q15599 1-337) | binds |  | binds | binds | no binding |  |
| B1 |  |  |  |  |  | binds |
